Results reported in PubChem BioAssay AID1259418 (Broad Institute, 2018).
The whole screen tested about 3,400 compounds, of which about 840 (25%) were called active. Inconclusive results, whose numbers are uncertain, are shown with a selection of clear calls.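 The calls were made as follows: active = fitted half-maximal concentration of signal decrease at or below twice the sample's top tested concentration; inconclusive = flat curve between -70 and -30 percent, or poor fit; inactive = flat within 30 percent, signal rise, or potency above limit.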

Experiment: T. gondii growth inhibition with IFN-gamma, dose response, cell-based, ME49Luc, HeLa, luciferase, 72 h (AID 1259418)
Conditions: T. gondii ME49Luc in IFN-y HeLa, hits give low values, -100% = high-dose IFN-γ control wells

With `Cc1ccccc1CNC1=NCCNC12CCN(S(=O)(=O)c1ccc(C(C)C)cc1)CC2` the max activity (at 19.5 µM unless noted) was inconclusive: -51.6%.

With `COc1ccc(NC(=O)N2CCCCN3[C@H](CO)[C@@H](c4ccc(-c5ccccc5F)cc4)[C@H]3C2)cc1` the max activity (at 19.5 µM unless noted) was inconclusive: -51.4%.

For `OC[C@@H]1[C@@H](c2ccc(C#Cc3ccccc3F)cc2)[C@H]2CN(CC3CCOCC3)CCCCN12`, the max activity (at 19.5 µM unless noted) was inconclusive: -54.7%.

For `COc1cccc(CNC2=NCCNC23CCN(S(=O)(=O)c2ccc(C)c(C)c2)CC3)c1`, the max activity (at 19.5 µM unless noted) was inconclusive: -50%.

With `CCc1ccc(S(=O)(=O)N2CCC(C(=O)NCCc3csc(-c4ccccc4)n3)CC2)cc1` the max activity (at 19.5 µM unless noted) was inconclusive: -52.6%.

With `CCN(CC)CCOC(=O)C(c1ccccc1)C1CCCCC1` (stereo not given) the max activity (at 19.5 µM unless noted) was inconclusive: 25.5%.

For `COc1ccc(-c2nc(Cn3nnc(-c4nc(-c5ccc(Cl)cc5)no4)c3C)c(C)o2)cc1`, the max activity (at 19.5 µM unless noted) was inactive: 6.38%.

In the case of `CS(=O)(=O)N1CC(=O)N2[C@H](CO)[C@@H](c3ccc(C#CCC4CCCC4)cc3)[C@@H]2C1`, the max activity (at 19.5 µM unless noted) is reported as inconclusive: -40.2% [at 10 µM].

For `C/C=C/c1ccc(C2[C@H]3CNC[C@@H]2N3Cc2cccc(C(F)(F)F)c2)cc1` (stereo not given in full), the max activity (at 19.5 µM unless noted) was inconclusive: -40.5% [at 21 µM].

For `OC[C@H]1[C@H](c2ccc(C#Cc3ccccc3F)cc2)[C@@H]2CN(CC3CCOCC3)CCCCN12`, the max activity (at 19.5 µM unless noted) was inconclusive: 76.1% [at 10 µM].

In the case of `COc1ccc(-c2noc(-c3ccc(N4CCC(N5CCCCC5)CC4)nc3)n2)cc1`, the max activity (at 19.5 µM unless noted) is reported as inconclusive: 42.6%.

For `CN1C(=O)CCc2cc(NC(=O)C3CCC3)ccc21`, the max activity (at 19.5 µM unless noted) was inactive: 8.04%.

For `COc1cccc(N(Cc2nc(-c3ccccc3)oc2C)S(=O)(=O)c2ccc(C)cc2)c1`, the max activity (at 19.5 µM unless noted) was inactive: -7.21% [at 1.35 µM].

In the case of `CCOc1cccc(-c2noc(-c3nnn(Cc4nc(-c5ccc(OC)cc5)oc4C)c3C)n2)c1`, the max activity (at 19.5 µM unless noted) is reported as inconclusive: -104%.

With `CC(C)COCC(CN(Cc1ccccc1)c1ccccc1)N1CCCC1` (stereo not given) the max activity (at 19.5 µM unless noted) was inconclusive: 49.8% [at 10 µM].

With `Cc1ccccc1-c1noc(-c2nnn(Cc3nc(-c4cccc(Cl)c4)oc3C)c2C)n1` the max activity (at 19.5 µM unless noted) was inactive: -11.4% [at 0.16 µM].

In the case of `O=C(Cn1c(=O)c(S(=O)(=O)c2ccccc2)cc2ccccc21)NCc1ccc(F)cc1`, the max activity (at 19.5 µM unless noted) is reported as inconclusive: -39.6% [at 0.16 µM].

In the case of `Cc1ccc(C(=O)Nc2c(C(=O)N3CCCC3)[nH]c3ccccc23)cc1`, the max activity (at 19.5 µM unless noted) is reported as inactive: 14.8% [at 2.6 µM].

For `O=C(Cc1cccnc1)N1CC(=O)N2[C@@H](CO)[C@H](c3ccc(C#CC4CCCCC4)cc3)[C@@H]2C1`, the max activity (at 19.5 µM unless noted) was inactive: 14.3% [at 10 µM].

With `Clc1ccccc1-c1nc(NCCN2CCCc3ccccc32)c2ccccc2n1` the max activity (at 19.5 µM unless noted) was inactive: 37.1%.

In the case of `COc1ccccc1NC(=O)N1C[C@@H]2N[C@H](C1)C2c1ccc(-c2cccc(C#N)c2)cc1` (stereo not given in full), the max activity (at 19.5 µM unless noted) is reported as inconclusive: -46.1%.

In the case of `O=C(Nc1cccc(F)c1)N1CCCCN2[C@@H](CO)[C@H](c3ccc(C#Cc4cccnc4)cc3)[C@@H]2C1`, the max activity (at 19.5 µM unless noted) is reported as inconclusive: -70% [at 5 µM].

With `NC(=O)C1(N2CCCCC2)CCN(c2ncc(NC(=O)c3ccc(F)cc3)cc2C(=O)O)CC1` the max activity (at 19.5 µM unless noted) was inactive: -7.63% [at 10 µM].

In the case of `Cc1ccc(S(=O)(=O)N2CSC[C@@H]2C(=O)NCCc2csc(-c3ccccc3)n2)c(C)c1`, the max activity (at 19.5 µM unless noted) is reported as inconclusive: -69.3%.

With `CN1C(=O)CCc2cc(NC(=O)c3ccccc3F)ccc21` the max activity (at 19.5 µM unless noted) was inconclusive: 87.3% [at 10 µM].

In the case of `O=C(C1CCC1)N1C[C@@H]2N[C@H](C1)C2c1ccc(/C=C/c2ccccc2)cc1` (stereo not given in full), the max activity (at 10 µM) is reported as inconclusive: 36.4% and the max activity (at 19.5 µM) is reported as inconclusive: -115%.

For `Cc1ccc(S(=O)(=O)N2CCC3(CC2)NCCN=C3NCc2ccc(C(F)(F)F)cc2)cc1C`, the max activity (at 19.5 µM unless noted) was inconclusive: -43.9% [at 10 µM].

With `CCOc1ccc(C(=O)N2CCC3(CC2)Nc2ccc(C)c(C)c2-n2cccc23)cc1` the max activity (at 19.5 µM unless noted) was inactive: -13.2%.

For `COc1ccc(-c2nc(CN(c3ccc(OC)cc3)S(=O)(=O)c3cccs3)c(C)o2)cc1`, the max activity (at 19.5 µM unless noted) was inconclusive: -53.5% [at 0.16 µM].

With `COc1ccc(C#Cc2ccc([C@@H]3[C@H](CO)N4C(=O)CN(C(=O)NC(C)C)C[C@@H]34)cc2)cc1` the max activity (at 19.5 µM unless noted) was inconclusive: 24%.

In the case of `Cc1cccc(-c2ccc([C@H]3[C@H]4CN(S(=O)(=O)c5ccccc5F)CCCCN4[C@H]3CO)cc2)c1`, the max activity (at 19.5 µM unless noted) is reported as inconclusive: -38.4%.

In the case of `CCc1ccccc1S(=O)(=O)N1CCC[C@@H]1C(=O)NCCc1csc(-c2ccccc2)n1`, the max activity (at 19.5 µM unless noted) is reported as inconclusive: -57.3%.

With `O=C1N(c2ccccc2)c2ccccc2C1(Cc1ccncc1)Cc1ccncc1` the max activity (at 19.5 µM unless noted) was inconclusive: 30.4%.

In the case of `O=S(=O)(c1ccccc1)N1CCCCN2[C@H](C1)[C@@H](c1ccc(C#CC3CCCC3)cc1)[C@@H]2CO`, the max activity (at 19.5 µM unless noted) is reported as inconclusive: 12.8% [at 10 µM].

With `Cc1ccc(CNC2=NCCNC23CCN(S(=O)(=O)c2ccc4c(c2)CCCC4)CC3)cc1` the max activity (at 19.5 µM unless noted) was inconclusive: -69.7% [at 5 µM].

For `Cc1ccc(C)c(-c2coc(-c3ccc(NC(=O)NCc4ccccc4)cc3)n2)c1`, the max activity (at 19.5 µM unless noted) was inconclusive: -50.2% [at 0.16 µM].

In the case of `Cc1cccc(-n2ncc3c(NC4CCCCC4)ncnc32)c1`, the max activity (at 19.5 µM unless noted) is reported as inconclusive: 464% [at 10 µM].

With `O=C(c1cnccn1)N1CC(=O)N2[C@H](CO)[C@@H](c3ccc(-c4cccc(F)c4)cc3)[C@@H]2C1` the max activity (at 19.5 µM unless noted) was inconclusive: -40.4%.

In the case of `CC(C)NC(=O)N1CC(=O)N2[C@@H](CO)[C@H](c3ccc(/C=C/c4ccccc4)cc3)[C@@H]2C1`, the max activity (at 19.5 µM unless noted) is reported as inconclusive: -53.5%.

With `CC(C)C#Cc1ccc([C@@H]2[C@H]3CN(C(=O)NC4CCCC4)CC(=O)N3[C@H]2CO)cc1` the max activity (at 19.5 µM unless noted) was inconclusive: -43.2% [at 0.3 µM].

For `Cc1ccc(-c2nc(Cn3nnc(-c4nc(-c5ccc(OC(F)(F)F)cc5)no4)c3C)c(C)o2)cc1`, the max activity (at 19.5 µM unless noted) was inconclusive: -75.1% [at 0.35 µM].

With `Cc1ccc(-c2coc(-c3ccc(NS(=O)(=O)c4cccc(Cl)c4C)cc3)n2)c(C)c1` the max activity (at 19.5 µM unless noted) was inactive: 16.4% [at 2.6 µM].

In the case of `Cn1c([N+](=O)[O-])cnc1COC(N)=O`, the max activity (at 19.5 µM unless noted) is reported as inconclusive: 21.1%.

In the case of `CN1C(=O)CCc2cc(NC(=O)c3cc(F)cc(F)c3)ccc21`, the max activity (at 19.5 µM unless noted) is reported as inconclusive: 222%.

In the case of `Cc1ccc(C(=O)Nc2ccc(-c3nc(-c4ccccc4)co3)cc2)cc1`, the max activity (at 19.5 µM unless noted) is reported as inconclusive: 207% [at 10 µM].

In the case of `COc1cccc(CNC(=O)Nc2ccc(-c3nc(-c4ccc(C)cc4C)co3)cc2)c1`, the max activity (at 19.5 µM unless noted) is reported as inactive: 20.1%.

For `Cc1ccc(S(=O)(=O)N2CCC[C@@H]2C(=O)NCCc2csc(-c3ccccc3)n2)c(C)c1`, the max activity (at 19.5 µM unless noted) was inconclusive: -41.4%.

For `N#Cc1ccc(-c2ccc3c(c2)[C@H]2[C@H](CCN2C(=O)C2CCCCC2)[C@H](CO)N3)cc1`, the max activity (at 19.5 µM unless noted) was inconclusive: -53.2% [at 21 µM].

For `COc1cccc(S(=O)(=O)N2CCCCN3[C@H](CO)[C@H](c4ccc(C#CCC(C)C)cc4)[C@H]3C2)c1`, the max activity (at 1.2 µM) was inconclusive: 385% and the max activity (at 19.5 µM) was inconclusive: -98.6%.

With `Cc1ccc(C(=O)Nc2ccc3c(c2)CCC(=O)N3C)s1` the max activity (at 19.5 µM unless noted) was inconclusive: -46.3%.

In the case of `Cc1ccc(-c2nc(Cn3nnc(-c4nc(-c5cccnc5)no4)c3C)c(C)o2)cc1`, the max activity (at 19.5 µM unless noted) is reported as inconclusive: -29.8% [at 0.35 µM].

For `CCS(=O)(=O)N1CCC(C(=O)NCCc2csc(-c3cccs3)n2)CC1`, the max activity (at 19.5 µM unless noted) was inactive: -17.6%.

For `COCCCNC(=O)C1(C)CCC(=O)N1CCc1c[nH]c2ccccc12` (stereo not given), the max activity (at 19.5 µM unless noted) was inconclusive: -70.8% [at 0.68 µM].

For `CC(C)C#Cc1ccc([C@@H]2[C@H]3CN(S(=O)(=O)c4ccccc4)CC(=O)N3[C@H]2CO)cc1`, the max activity (at 19.5 µM unless noted) was inconclusive: -31.3%.

With `CC(C)C#Cc1ccc([C@@H]2[C@@H](CO)N3C(=O)CN(S(=O)(=O)c4ccccc4)C[C@@H]23)cc1` the max activity (at 19.5 µM unless noted) was inconclusive: -37.1%.

For `CCOc1ccc(-c2nc3c(s2)CN(C(=O)Nc2ccc(C)cc2)CC3)cc1`, the max activity (at 19.5 µM unless noted) was inconclusive: -25.8% [at 0.35 µM].

For `CN(C)C(=O)c1cccc(-c2ccc3c(c2)[C@@H]2[C@@H](CCN2C(=O)Cc2ccccc2)[C@H](CO)N3)c1`, the max activity (at 19.5 µM unless noted) was inconclusive: 23.1% [at 10 µM].

In the case of `O=S(=O)(c1cccs1)N1CCC2(CC1)NCCN=C2NCc1ccccc1F`, the max activity (at 19.5 µM unless noted) is reported as inactive: -35.7%.

For `Cc1oc(-c2ccccc2)nc1Cn1nnc(-c2nc(-c3ccc(Br)cc3)no2)c1C`, the max activity (at 19.5 µM unless noted) was inconclusive: -41.8% [at 0.16 µM].

In the case of `O=S(=O)(c1ccccc1)N1CCCCN2[C@H](CO)[C@@H](c3ccc(C#CC4CCCC4)cc3)[C@@H]2C1`, the max activity (at 19.5 µM unless noted) is reported as inconclusive: 35.7% [at 10 µM].

For `O=C(Nc1ccc(-c2nc(-c3cccc(Br)c3)co2)cc1)Nc1ccccc1F`, the max activity (at 19.5 µM unless noted) was inactive: 6.98%.

With `Cc1ccc2c(c1C)-n1cccc1C1(CCN(C(=O)c3ccc(C#N)cc3)CC1)N2` the max activity (at 19.5 µM unless noted) was inconclusive: 1.23%.

With `COc1cc(Nc2nc(SCc3ccc(C(C)(C)C)cc3)nc3ccccc23)cc(OC)c1` the max activity (at 19.5 µM unless noted) was inconclusive: 42.4% [at 5 µM].

With `O=C(NC1CCCC1)N1CCCCN2[C@H](CO)[C@H](c3ccc(-c4cccnc4)cc3)[C@H]2C1` the max activity (at 19.5 µM unless noted) was inconclusive: 28.1%.

For `CCCNC(=O)N1CC(=O)N2[C@@H](CO)[C@H](c3ccc(C#Cc4cccc(OC)c4)cc3)[C@@H]2C1`, the max activity (at 19.5 µM unless noted) was inconclusive: -22.1%.

In the case of `O=C(Nc1cccc(F)c1)C1CC12CCN(S(=O)(=O)c1ccccc1)C2` (stereo not given), the max activity (at 19.5 µM unless noted) is reported as inconclusive: -47% [at 5 µM].

In the case of `O=C(CCC1CCCC1)Nc1ccc(-c2nc(-c3ccccc3)co2)cc1`, the max activity (at 19.5 µM unless noted) is reported as inconclusive: 78.3% [at 0.68 µM].

In the case of `O=C(C1CCOCC1)N1CC(=O)N2[C@H](C1)[C@H](c1ccc(C#CC3CCCCC3)cc1)[C@@H]2CO`, the max activity (at 19.5 µM unless noted) is reported as inconclusive: -35%.
